The supplement of paper PMC4166925
± gives the standard deviation of the averaged measurements. The full ranking holds about 33,000 sequences; the median of “E-score (dimensionless, -0.5 to 0.5)” is about -0.049, and the highest 2% start at about 0.37. The list shows a part of the results.

test system: T1, PmTbr T-box DNA-binding domain (GST fusion); test: PBM E-score of 8-mer (E-score (dimensionless, -0.5 to 0.5)); Tbr is Tbrain of the sea star Patiria miniata (Pm) or the sea urchin Strongylocentrotus purpuratus (Sp); higher = stronger binding preference; most listed sequences are background and not binding sites; settings: the construct has about 5 more residues each side
T1 sequence: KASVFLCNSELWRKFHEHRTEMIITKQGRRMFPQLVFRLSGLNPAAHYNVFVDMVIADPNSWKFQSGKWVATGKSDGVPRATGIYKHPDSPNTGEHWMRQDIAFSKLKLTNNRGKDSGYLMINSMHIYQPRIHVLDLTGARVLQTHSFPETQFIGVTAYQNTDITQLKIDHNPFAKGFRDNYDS
How it was run: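 Expression of GST-fused Tbr T-box DNA-binding domains, each holding the full T-box plus roughly five flanking residues, was carried out in BL21 E. coli at 20 °C, with purification by glutathione affinity chromatography. Universal Agilent arrays made double-stranded by primer extension were incubated with the protein at 200 nM in PBS (pH 7.5), then scanned and quantified. All ungapped 8-mers were scored from probe intensities, and each received an enrichment E-score from the Universal PBM Analysis Suite, averaged over duplicate arrays.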

Sequence	PBM E-score of 8-mer
CCCATCAG	-0.276 ± 0.13
CGGCATAG	-0.0136 ± 0.017
CCCGTTAG	0.0969 ± 0.068
AGGCCGGC	-0.0825 ± 0.025
ATATGAAT	-0.0233 ± 0.082
TCTCAAGA	-0.0673 ± 0.063
CCGCGCCC	0.0469 ± 0.032
AAGAGTAC	-0.296 ± 0.044
AATAGAGC	-0.285 ± 0.057
GGCCCGGA	-0.154 ± 0.031
CGTATGGC	-0.0505 ± 0.0075
GTCTTGGA	-0.225 ± 0.037
CGAGGTCA	0.0395 ± 0.11
GCTCCCGA	-0.153 ± 0.05
CAAAATCA	0.0972 ± 0.034
ATAGTACA	-0.168 ± 0.022
CGGTGTAG	0.134 ± 0.1
ACTTGCGC	0.183 ± 0.062
AGCTGCGC	0.0103 ± 0.024
TAAATCTA	0.0196 ± 0.078
AGGGAAGG	-0.246 ± 0.044
CCATTCTC	0.0677 ± 0.027
AAGCATCA	-0.0588 ± 0.0098
ACCACTTC	0.116 ± 0.0091
AACGCAAT	0.162 ± 0.0089

Sequence	PBM E-score of 8-mer
CTGGATTA	-0.197 ± 0.073
TCGCTGCA	-0.0922 ± 0.023
TTACACAA	0.0808 ± 0.0097
CTGTAGAC	-0.173 ± 0.021
CGCGCGCG	0.186 ± 0.03
ATACTCGA	-0.083 ± 0.053
GAGCGCGA	0.291 ± 0.019
CACGGAAG	0.0863 ± 0.026
AACGTAGC	-0.026 ± 0.0019
ATGACTTA	0.0404 ± 0.052
GCTGCTCC	-0.082 ± 0.025
CGCTGTAC	-0.173 ± 0.0051
CGCCGTCA	0.21 ± 0.09
ACCCTTCT	-0.0405 ± 0.011
TCCGCTAA	0.173 ± 0.014
ACATGGGC	-0.183 ± 0.03
TAGGCAGA	-0.221 ± 0.05
GCTGGGCA	-0.196 ± 0.07
AGCGTGAA	0.381 ± 0.004
AGGTCCTC	-0.263 ± 0.025
GAGTGATC	-0.212 ± 0.036
ATTTACGA	-0.0186 ± 0.17
ATCTGACC	-0.268 ± 0.0054
AAGACCGC	0.0811 ± 0.038
ACCAACTA	-0.0247 ± 0.12

Sequence	PBM E-score of 8-mer
TCCGGAGA	-0.138 ± 0.06
CATCATCG	-0.0371 ± 0.063
CCACCTAG	0.264 ± 0.0049
CCCACGAA	0.0862 ± 0.068
CTTAGGAC	-0.267 ± 0.0085
AGTGTTTG	0.275 ± 0.036
TACTAGCA	0.115 ± 0.062
TCCAGTAA	-0.182 ± 0.035
CGGCTGAC	-0.176 ± 0.06
CTTCTCGC	0.229 ± 0.027
AGCTACAC	0.0294 ± 0.011
AGCGAACG	0.0481 ± 0.02
ACGAATCG	0.201 ± 0.029
CGGTTGCA	0.145 ± 0.037
CGGAGCCG	-0.145 ± 0.068
GATACAGA	-0.189 ± 0.0045
ATCATGAG	-0.136 ± 0.011
GATACCTA	-0.113 ± 0.03
ATTTCGCC	-0.0762 ± 0.14
CGTTTCTA	-0.084 ± 0.0067
CATGCCAG	-0.112 ± 0.042
GAAGGTGC	0.439 ± 0.012
GTTCTCTA	-0.0568 ± 0.065
CGCTTAGA	-0.123 ± 0.017
GATATCTA	-0.117 ± 0.025

Sequence	PBM E-score of 8-mer
CATCGCCA	0.0857 ± 0.026
AAACCCTT	-0.334 ± 0.019
CCAAGATA	-0.101 ± 0.0067
AACTGGCC	-0.00308 ± 0.086
ACGATGTC	-0.0933 ± 0.018
AGCGTTAT	0.105 ± 0.049
ACATTTAG	0.0367 ± 0.035
TCGATCGA	-0.00381 ± 0.11
GATAGGTA	0.085 ± 0.09
GCTCGCGA	0.225 ± 0.011
AATCCTGG	-0.138 ± 0.028
CGCCGTGC	0.0684 ± 0.03
CCGTGAGG	0.044 ± 0.027
CGATACTC	-0.00241 ± 0.045
CCCAGGCA	-0.204 ± 0.18
AACGGCCG	-0.0128 ± 0.013
AGACGTAC	-0.0326 ± 0.046
AACCTCTC	-0.0958 ± 0.093
TGTTAGAA	0.183 ± 0.018
ACACCTAT	0.4662 ± 0.00073
GGCTGGGA	-0.202 ± 0.1
GCCTCTCA	0.0474 ± 0.026
CATCCCGA	0.0359 ± 0.022
GTATAAAA	-0.166 ± 0.085
GTAACTTA	-0.0791 ± 0.07

Sequence	PBM E-score of 8-mer
GGTTTCAC	0.308 ± 0.019
TCGTTAGA	-0.0141 ± 0.027
AGTTCTAT	-0.232 ± 0.054
ATGCGGAG	-0.142 ± 0.059
ACAACATG	0.179 ± 0.0072
ACGAGTGA	0.069 ± 0.067
CTGTTGGC	0.165 ± 0.047
GGCGCGAA	0.4607 ± 0.0017
GTGAACAC	0.35 ± 0.021
ATATATTA	-0.227 ± 0.014
AGTGACCA	0.0489 ± 0.11
TCTTAGCA	0.2 ± 0.017
AGTAAGTG	0.239 ± 0.0039
TCCGAACA	0.0231 ± 0.017
AAAGGGGA	-0.0566 ± 0.097
ACACTGTG	0.227 ± 0.0059
ACACGCAC	0.147 ± 0.046
CGCGCGAC	0.291 ± 0.025
CAGAAGGG	0.0138 ± 0.051
GACACACA	0.257 ± 0.02
ATCCGCCC	-0.284 ± 0.025
ACGCCACG	-0.0313 ± 0.0036
CCGCCAGA	-0.0349 ± 0.073
CAGCAGCC	-0.138 ± 0.057
CACGCAAC	0.024 ± 0.02

Sequence	PBM E-score of 8-mer
AACACCTA	0.4803 ± 0.0034
ACGGTCAC	0.0787 ± 0.063
CCCATGCC	-0.163 ± 0.034
GCTACCCC	-0.124 ± 0.043
CGTACCAC	-0.117 ± 0.024
GATAAGCC	0.022 ± 0.096
CCGCTCCA	-0.0572 ± 0.052
ACCCACCG	-0.118 ± 0.046
GTAATCAC	0.201 ± 0.035
AGCGCACA	0.0274 ± 0.021
CGTAGTTA	-0.189 ± 0.055
ATCGGGAA	-0.272 ± 0.011
CACGCGTG	0.226 ± 0.027
CCGATCAG	0.022 ± 0.046
TACCCAGA	-0.174 ± 0.05
ACGTTAAT	0.0757 ± 0.015
CACCGAAC	0.0973 ± 0.03
CCCCGTTC	-0.0578 ± 0.03
AACCGTAC	-0.1762 ± 0.00077
GCGGCCAA	0.0231 ± 0.017
ATTCCTGG	-0.248 ± 0.0029
GAAGGGGA	-0.169 ± 0.064
ATTACTAG	-0.14 ± 0.0034
ACATGGGA	0.0421 ± 0.044
GGCTTGTA	-0.143 ± 0.026

Sequence	PBM E-score of 8-mer
CCCGTAAA	-0.107 ± 0.022
AGGCTCCA	-0.174 ± 0.039
CATATTAG	-0.0525 ± 0.069
GACCTTCC	0.0338 ± 0.01
GACCGGTC	-0.0385 ± 0.087
GTATGTAA	-0.201 ± 0.1
CACAATTA	0.213 ± 0.0069
ACACGGAC	0.0644 ± 0.0049
CATCTCAC	0.3254 ± 0.00092
CTCTCTCA	0.122 ± 0.069
CTCCGGCC	-0.25 ± 0.061
CACACACC	0.428 ± 0.021
AACCGATC	0.0807 ± 0.014
GTCACATA	0.263 ± 0.0064
AGCACCAA	0.229 ± 0.028
AAGGATTG	-0.11 ± 0.039
ACATCGTG	-0.0121 ± 0.082
CCATCCGC	-0.0729 ± 0.035
AAGTTTGT	-0.0655 ± 0.12
CGGATCAC	0.0737 ± 0.044
GCCTTACA	0.00945 ± 0.0023
AAGTTCTC	-0.047 ± 0.013
